# Measurements as given in the RNAGym collection of RNA variant scans (doi:10.7554/elife.90254).
# The source gives no read counts; variants with many changes may rest on few reads.
# B1: LINE1-mini (parent)
# chain: GGCAGAGCUCAACACAGCGUGGCAAAGUGGCUGUGGCUAGACUGCC
# Variants of: B1
# Test: self-cleavage, relative activity (ratio to wild type); higher = more cleavage; in vitro, sequencing; the parent is a self-cleaving ribozyme
row,Variant,self-cleavage
1,GGCAGAGCUCAACACAGCGUGGCAAAUUGGCUGUGGCUAGAUGGCC,0.15
2,GGCAGAGCUCAACAUAGCGUGGCAAAGUCGUUGUGGCUAGACUGCC,0.17
3,GACAGAGCUCAACACAGCGUGGCAAAGUGACUGUGGCUAGGCUGCC,0.87
4,GGCUUAGGUCAACACAGCGUGGCAACGUGGUUGUGGCUAGACUGCC,0.01
5,GGCAGAGAUCAACACGUGGCGGCAAAGUGGCUGUGGCUAGACUGCC,0.05
6,GGCAGAGCUCAACACACCGUUGCAAAGUGGCUAUGGCUAGACUGCC,0.02
7,GGCAGAGCUUAUCACAGCGCUGCAAAGUGGCUGUGGCUCGACUGCC,0.03
8,GUCAGAGCUCAAUCCAGUGUGGCAAAGUGGCUGCGUCUAGACUGCC,0.05
9,GGCAGAGCCCAACACAGCGUGGCAAAGUUGUUGUGGCUAGACUGCC,0.01
10,GGCAGAGCUAAGCACAGCGUGGCAAGGUGGCUGUGGCUAGACUGCC,0.02
11,GGCAGAGCUCAACACAGUGUGGCAAAGACGCUGGGGCUAGACUGCC,0.13
12,GACAGAGCUCAACAAAGCGUGGCAAAGUGGCUGUGGCUCGACUGCC,0.14
13,GGCAGGGCUCAACGCAGCGUUGCAAUGUUACUGUGGCUAGCCUGCC,0.17
14,GGAAGAGCUCAACACAGCGGGGCAAAGAGGCUGGGGCUAGAAUGCC,0.03
15,GGCAGAGCUCUACACAGCGUGGCAAAGUUGCCGUGGCUAGACGGCC,0
16,GGAAGAGCUCAACCCAGCGUGGCAAAGUGGCUGUGGCUAGAUUGCC,0.05
17,GGCAGAGCUCAACACAGCGUGGCAGUGUGGUUGUGGCUAGAUUGCC,0.08
18,GGCAGAGCUAAACACAACGUGGCAAAGUGGCUGUGGCGAGACUGCC,0.11
19,GGCAGAGCUCAACACAGCGUGGCAAACUGCGUGUGGCUAGACUGCC,0.08

row,Variant,self-cleavage
1,GGCAGAGCUCAAAACAGCGUGGCUAAGUGGGUGUGGCUAGCCUGCU,0.11
2,GGCGCAUCUCAACACAGCGUCGCACAGUGGCUGUGGCUUGACUUCC,0.24
3,GGGAGAGCUCAACACAGCGUGGCAAAGUGGCUGUAGCUAGACUGCU,0
4,GGCAGAGCUAAACACAGCGUGGCAAUGAGGCUGUGGCUACACUGCC,0.01
5,GGCAGAGAUCAACACAUCGGGGCAAAGUGGCUGUGGCUAGACUGCC,0.25
6,GGAAGAGCUCAACACAGCGUGGCAAAGGGGCUGUGACUAGACUGCC,0.29
7,GGCAGAGCUCACCACAGCGUGCCACAGUGGCUGUGGAUAGACUGCC,0
8,GGCAAAGCUCAGCACAACGUGGCAAAGUGGCUGUGGCUAGCCUGCC,0.08
9,GGUAGAGCUCAACACAGCCUGGCAGAGAGGCUGUGGUUAGACUGCC,0.01
10,GGCAGAGCUUAACACAGCAUGUAAAAGUGGCUGUGGCUAGACUUCC,0.18
11,GGCAAAGCUCAACGCAGCGUGGCAAAGUGGCUGUGGUUAGACUGCC,0.07
12,GGGAGAGCUGAGCGGAGCGUGGCAAAGUGGCUGUGGCUAGACUGCC,0.04
13,GGCAGAGCUCAACUCCGCGUGCCAAAGUGGCUGUGGCUAGACUGCC,0.05
14,GGCAGAGCUCUACACAGCGUGGCAAGGUGGCUGUGACUAGACUGGU,0
15,GGCAGAGCCCAACACAGCGUGGCACAGUGGCUGUGGCUAGACUGCG,0.02
16,GGCAGAGCUCAACACAGCAUGGCGAAGUGGCUGUGGCUAGACUGCU,1.66
17,GGCUGAGCUCAAAACAGCGUGGCAAAGUGGCUGUGGCUAUACUGCC,0.02
18,GGCAGAGGUUAACACAGCGUGGCAACGUCGCUGUGGCUAGACUGCC,0.01
19,GGCAGAGCUCAACACAGCGUGGCAAAGCGGCUGUCGCUAGACUCCC,0.11

row,Variant,self-cleavage
1,GGCUGAGGUCAGCACAGCGUGGCAAAGUGGCGAUGGCUAGACUGCC,0.05
2,GGCAGAGCUCAACACAGCGUGUCAAAUUGGCUAUGGGUAGACUGCC,0.02
3,GGCAGAGCUCAACACAGCGUGGCAAAGUGGCUGCGGCUAUAAUGCC,0.02
4,AGCAGCGCUCAACACAGCGUCGCAAAGUGGCUGUGCCUAGAGUGGC,0.02
5,GGCAGUGCUCAACACAGCGUGGAAAAGUGGCUGUGGCUCGACUGCC,0.35
6,GGCAUAGCUCAACACAGCGUGGCUAAGUGGCUGUGGGUAGACUGCC,0.02
7,GGCAGAGCUCAACACUGCUUGGCAAAUUGGCUGUGGCUAGACUGCC,0.64
8,GGCAGAGCUCAACACAGAACGGCAAAGUGAAUGUGGCUAGACUGCC,0.2
9,UGCAGAGCUCAACAGAGCGAGGCAAAGUGGCUGUGUCUAGACUGCC,0.02
10,GGCACAGCUCAAGACACCGUGGCAAAGUGGCUGUGGCUAGUCUGCC,0.01
11,GGCAGGGCUUAACACAUCCGGGCAAAGUGGCUGUGGCUAGACUGCC,0.02
12,GGCAGUGCUCAACACAGCGUGGCAGAGUGGCUGUGGCUAGAUUGCC,0.15
13,GGCAGAUCUCAACACAGCGAGGCAAAGUGGCUGUGGCUAGACUGCA,0.03
14,GGCAGGGCUCAAAACAGCGUGGCAAAGUGGCUGUGGCGAGACUGCC,0.02
15,GGCAGAGCUCAACACGGCGUGGCAAAGUGGCUAUAGCUAGACUGCC,0.17
16,GGCAGAGCUCAACACAGCGUGGCAAACUGGUUGUGGCUAGACUGCG,0.04
17,GGCAGAGCUCAACACAGCGUGGCAAAGUGGCUUUGGCUUGACUGAC,0.01
18,GGCAGAGCUCAACUCAGCAUGGCAAAGUGGCUGUGGGUAGACUGCC,0.05
